Measured values taken from PubChem BioAssay AID662 (National Center for Advancing Translational Sciences (NCATS), 2007).
The whole screen tested about 71,000 compounds, of which about 1,800 (2.5%) were called active. Inconclusive results, whose numbers are uncertain, are shown with a selection of clear calls. The call rests on the fitted dose curve; in most records, active means well fitted activation curve with a large enough effect in the signal ratio, with a control signal flat (not every such curve was filed as active); inconclusive means small, poorly fitted or top-dose-only effect, or effect the other way, or a change in a side signal; inactive means flat fitted curve, though single readings scatter; the % refers to the signal ratio. Where the call is inconclusive, the potency comes from a doubtful curve fit.

Test: Cell signaling CRE-BLA (Fsk stim); on activity change, negative = inhibition: % of control where 0% means no effect
Details: CHO CRE-bla reporter (cAMP response element driving beta-lactamase), forskolin EC10, beta-lactamase ratio; activity change, negative = inhibition: at 38.2 µM (top of the series) unless noted
Outline: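 Cells were plated overnight at 37 °C, exposed to compound titrations plus EC10 NKH 477 for 3 h, then given CCF4 dye for 2 h at room temperature. Blue/green (460/530 nm) ratio was converted to %Activity and AC50 values calculated.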
Potency means the concentration at half of the fitted maximal effect; tags describe the fitted curve by direction and shape.

SMILES | activity change, negative = inhibition | Potency
COc1ccccc1-n1cnnc1SC1CCOC1=O (stereo unspecified) | inactive: -11.1% | 
CCCCNC(=O)c1ccc(NC(=O)C2CCCO2)cc1 (stereo unspecified) | inconclusive: -13.8% | 
CC1(C)Cc2c(sc3c2c(=N)n(Cc2ccco2)c(=O)n3CC(=O)Nc2ccccc2)CO1 | inconclusive: 15.8% | 
CC(C)CC1(C)NC(=O)N(CC(=O)NC(=O)Nc2ccc3c(c2)OCCO3)C1=O (stereo unspecified) | inactive: -4.05% | 
O=C(NCc1ccco1)c1ccc2c(=O)n(CCC3=CCCCC3)c(=O)[nH]c2c1 | inconclusive: -8.14% | 
Cn1c(=O)c2c(SCc3ccccc3)nc(-c3ccco3)nc2n(C)c1=O |  | inconclusive: 10 µM [rising, single point]
CCC(c1nnnn1Cc1ccc2c(c1)OCO2)N1CCN(c2ccc(OC)cc2)CC1 (stereo unspecified) | inactive: 1.37% | 
Cc1ccc(C(c2sc3ncnn3c2O)N2CC(C)CC(C)C2)cc1 (stereo unspecified) | inconclusive: -23.1% | 
CC(C)n1c(NCc2cccs2)nc2ccccc21 | inconclusive: -3.73% | 
CC(C)(C)C(=O)Oc1cc(N)n(S(=O)(=O)c2ccccc2)n1 | inconclusive: -24.2% | 
COC(=O)CSc1ncc(C#N)c(N)n1 | inactive: -2.9% | 
Cc1cccc(-n2c(SCC(=O)NCc3ccco3)nc3ccccc3c2=O)c1 | inconclusive: -8.99% | 
O=c1oc2ccccc2n1CCCCCn1c(=O)oc2ccccc21 | inconclusive: -5.2% | 
Cn1c(C(=O)N(Cc2ccccc2)Cc2ccccn2)cc2sccc21 | inactive: 3.76% | 
CCCn1c(NC(=O)C2COc3ccccc3O2)nc2ccccc21 (stereo unspecified) | inconclusive: -0.87% | 
CN(CC(O)COCc1cccs1)C1CCCCC1 (stereo unspecified) | inactive: -4.88% | 
N#Cc1nc(-c2ccc(OCc3ccccc3)cc2)oc1NCCCN1CCOCC1 |  | inconclusive: 1.26 µM [rising, partial curve]
CC1(c2ccc(Cl)cc2)NC(=O)N(CC(=O)N2CCCC2)C1=O (stereo unspecified) | inconclusive: -7.31% | 
Cc1cc(Nc2nc3ccccc3[nH]c2=O)n(-c2ccccc2)n1 | inconclusive: 13.6% | 
Cc1cc(Cl)ccc1OCC(=O)Nc1nc(N)nc(N)n1 | inactive: 0.885% [at 7.6 µM] | 
CCc1c(C)nc2ncnn2c1N1CCCC(C(=O)NCCc2ccc(OC)cc2)C1 (stereo unspecified) |  | inconclusive: 10 µM [rising, single point]
Nc1ncnc2c([C@@H]3O[C@@H](CO)[C@H](O)[C@@H]3O)nsc12 | inconclusive: 0.626% [at 7.6 µM] | 

SMILES | activity change, negative = inhibition | Potency
COc1ccc(N2CCn3c2nc2c3c(=O)n(CCCc3ccccc3)c(=O)n2C)c(OC)c1 | inactive: -15.7% | 
COc1ccccc1CNc1nc2ccccc2n1CCN1CCCCC1 | inactive: -8.75% | 
O=C(O)Cc1ccc(O)c(O)c1 | inactive: 7.76% | 
Cn1c2c(c(=O)n(C)c1=O)CN(Cc1ccc(F)cc1)CN2 | inconclusive: 18.1% | 
CN(CC(=O)NCc1ccc(Cl)cc1)S(=O)(=O)c1cccc2nsnc12 | inconclusive: -21.2% | 
CCN1C(=O)C(CC(=O)N2CCN(C(c3ccccc3)c3ccccc3)CC2)N(CC)C1=O (stereo unspecified) | inactive: -6.43% | 
COc1ccccc1CNc1cc(-c2cccc(NS(C)(=O)=O)c2)ncn1 | inconclusive: 5.87% | 
O=c1[nH]c(C2CCCN(S(=O)(=O)c3ccccc3)C2)nc2c1nnn2Cc1ccccc1F (stereo unspecified) |  | inconclusive: 12.6 µM [rising, single point]
COC(=O)[C@@]1(Cc2ccc(F)cc2)[C@H]2c3cc(C(=O)N4CCCC4)n(Cc4ccc(OC(F)(F)F)cc4)c3C[C@H]2CN1C(=O)c1ccccc1 | inactive: -8.28% | 
Cc1cc(NC(=O)COc2ccc(N(C)S(=O)(=O)c3ccccc3)cc2)no1 | inactive: -5.87% | 
Cc1c(C(=O)OCC2CCCO2)[nH]c2c1C(=O)CC(c1ccco1)C2 (stereo unspecified) | inconclusive: -4.36% | 
O=S(=O)(Nn1cnnc1)c1ccccc1Cl | inactive: -14.4% | 
CCN1CCCC1Cn1cnc2c([nH]c3cccc(Cl)c32)c1=O (stereo unspecified) | inconclusive: -12.7% | 
COC(=O)c1c(-c2ccc(OC)c(OC)c2)csc1N |  | inconclusive: 10 µM [rising, single point]
Nc1ccccc1N | inconclusive: 18.9% | 
Cc1ccc2[nH]c(-c3ccccc3)cc(=O)c2c1 |  | active: 1.58 µM
Cc1c(NC(=O)c2cc3nc(-c4ccccc4)cc(C)n3n2)c(=O)n(-c2ccccc2)n1C | inactive: 6.2% | 
C=CCn1c(SCC(N)=O)nnc1-c1cc(Br)ccc1O | inconclusive: 17.5% | 
Cc1nc(=O)c(-c2ccccc2)c(C)n1CC1CCCO1 (stereo unspecified) | inconclusive: -7.8% [at 7.6 µM] | 
Oc1ccc(Br)cc1CN1CCCCCCC1 | inconclusive: -8.5% [at 7.6 µM] | 
COC(=O)C1=C(C)N=c2s/c(=C/c3ccoc3)c(=O)n2C1c1ccccc1 (stereo unspecified) | inconclusive: -16.7% | 
O=[n+]1cc(-c2ccc(F)cc2)n([O-])c2c1CCC2 | inactive: -3.52% | 

SMILES | activity change, negative = inhibition | Potency
CCCCC(CC)CNC(=O)c1cccs1 (stereo unspecified) | inconclusive: -13.6% [at 7.6 µM] | 
COC(=O)c1ccc2c(c1)N(C)CCS2 | inactive: 10.1% | 
CCCCC1CCC(c2nc(-c3ccccn3)no2)CC1 (stereo unspecified) |  | inconclusive: 20 µM [rising, single point]
c1ccn(-c2ncnc3sc4c(c23)CCCC4)c1 |  | inconclusive: 12.6 µM [rising, partial curve]
COC(=O)[C@@]1(Cc2ccc(OC)cc2)[C@H]2c3cc(C(=O)N(C)C)n(Cc4ccsc4Br)c3C[C@H]2CN1C(=O)c1ccccc1 | inconclusive: 15% | 
COc1ccc(CNc2nc3ccccc3n2CCN2CCCCC2)c(OC)c1 | inactive: -4.84% | 
Cc1cc(N2CCCCC2)n2nc(C)c(-c3ccccc3)c2n1 |  | active: 15.8 µM
CC(C)CN(Cc1cc2ccccc2[nH]c1=O)C(=O)c1cccnc1 |  | inconclusive: 25.1 µM [rising, single point]
Cn1c(SCCCC(=O)c2ccccc2)nnc1-c1ccncc1 | inconclusive: -7.32% | 
O=C(COC(=O)c1cccs1)Nc1ccccc1 |  | inconclusive: 0.0251 µM [rising, full curve, poor fit]
CCn1c(C)nc2cc(-c3nc4n(n3)Cc3ccccc3-4)ccc21 |  | inconclusive: 3.98 µM [rising, partial curve]
Cc1ccc(C(=O)Nc2nc3c(s2)CCCC3)o1 | inactive: 27.3% | 
CC1=CC(=O)c2ccccc2C1=O | inconclusive: -17.4% [at 17.1 µM] | 
CCCCCOC(=O)c1[nH]c2c(c1C)C(=O)CC(c1ccco1)C2 (stereo unspecified) |  | active: 0.0794 µM
COc1cc(C2C(C#N)=C(N)OC3=C2C(=O)CC(C)(C)C3)ccc1OC(=O)N1CCOCC1 (stereo unspecified) | inconclusive: -7.66% | 
COCc1nc2ccccc2n1Cc1ccccc1 | inactive: 7.9% | 
Cc1ccc(S(=O)(=O)N2CCCCC2)cc1C(=O)Nc1ncn[nH]1 | inactive: -15.2% | 
Fc1ccc(CSc2ncnc3c2oc2ccccc23)cc1 |  | active: 1 µM
O=C(C1CCN(S(=O)(=O)c2cccc3nsnc23)CC1)N1CC=C(c2ccccc2)CC1 | inconclusive: -11.2% | 
Cc1nn(Cc2ccc(Cl)c(Cl)c2)c(C)c1NC(=O)c1cc(-c2ccco2)on1 | inconclusive: 20.2% | 
CC(C)[C@](N)(C(=O)O)c1ccccc1 | inactive: 6.84% [at 7.6 µM] | 
CCOC(=O)c1sc2nc3n(c(=O)c2c1C)CCCCC3 |  | inconclusive: 10 µM [rising, partial curve]

SMILES | activity change, negative = inhibition | Potency
CN(C)C(CNC(=O)CN1C(=O)NC2(CCc3ccccc32)C1=O)c1ccco1 (stereo unspecified) | inconclusive: -4.62% | 
CCCCN(CC)CCNC(=O)C1c2cc(OC)c(OC)cc2C(=O)N2CCc3ccccc3C12 (stereo unspecified) |  | inconclusive: 0.1 µM [falling, full curve, poor fit]
COCCNC(=O)C(c1cccc(OC)c1)N(Cc1cccs1)C(=O)Cn1nnc2ccccc21 (stereo unspecified) | inconclusive: -4.62% | 
CCOC(=O)c1c(C)n(OCc2ccccc2)c2ccc3c(no[n+]3[O-])c12 |  | inconclusive: 2 µM [rising, full curve]
O=C(Cn1nnc2c(cnn2-c2ccccc2)c1=O)N1CCN(c2ccccc2F)CC1 | inactive: -13.1% | 
CCOC(=O)C1=C(C)NC(=O)C(C#N)C1c1ccco1 (stereo unspecified) | inactive: 23% | 
O=C(O)CCC(=O)c1cccc2ccccc12 | inactive: -10.9% | 
Cc1ccn2c(-c3csc(NCc4ccco4)n3)c(C)nc2c1 |  | inconclusive: 3.98 µM [rising, partial curve]
O=C1c2ccccc2C(O)N1Cc1ccco1 (stereo unspecified) | inactive: -5.07% | 
CCOc1cc(CNc2ncc(-c3ccc(OC)cc3)n2C)ccc1O | inconclusive: 7.67% | 
O=C(c1ccncc1)N1CCC2(CCCN(c3cccc(-c4ccccc4)c3)C2)CC1 | inconclusive: 15.7% | 
CC1CN(c2nc3ccccc3nc2C(C#N)C(=O)NCc2ccc3c(c2)OCO3)CC(C)O1 (stereo unspecified) | inconclusive: 19.5% | 
CCOC(=O)c1c(C)[nH]c(C(=O)COC(=O)c2ccncc2)c1C |  | inconclusive: 10 µM [rising, single point]
O=C(CSc1nnc(-c2ccncc2)n1-c1ccc(F)cc1)NC(=O)NCc1ccco1 | inconclusive: -8.23% | 
CCn1c(=O)c2cc(C(=O)NCc3cccs3)sc2c2ccccc21 |  | inconclusive: 2 µM [rising, full curve, poor fit]
CC1=C(C(=O)N2CCOCC2)C(c2ccccc2F)C2=C(CC(C)(C)CC2=O)N1 (stereo unspecified) | inactive: 11.5% | 
COc1ccccc1CN1CC[C@@]2(CCCN(C(=O)c3cc(C(F)(F)F)cc(C(F)(F)F)c3)C2)C1 | inactive: -18.1% | 
O=C(NCc1cccnc1)C1CCN(C(=O)c2ccc(Cl)cc2Cl)CC1 |  | inconclusive: 12.6 µM [rising, single point]
O=C(Nc1ccccn1)N1CCOCC1 | inconclusive: 5.13% | 
CN(C)c1ccc(-c2ccc3ncnc(N(C)Cc4ccco4)c3c2)cc1 |  | active: 0.631 µM
